Source: PubChem BioAssay AID1671194 (National Center for Advancing Translational Sciences (NCATS), 2021)
Hit rate of the full screen: of about 140,000 compounds, about 240 (0.17%) were called active. The shares of active, inactive and inconclusive entries below differ from those in the screen. Calls come from the whole dose curve; as a rule, active = well fitted inhibition curve with a large enough effect; inconclusive = small, poorly fitted or top-dose-only effect; inactive = no such curve, though single readings can be large or run the other way. Potencies beside an inconclusive call are fits to weak or partial responses and may not hold up.

Test: Primary qHTS assay for inhibitors of alpha-synuclein gene (SNCA) expression; note: nearly all actives have a fitted effect of over 45% in size;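 for activity change, negative = inhibition: plate controls were DMSO cells for no effect and cell-free wells for full effect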
Conditions: HEK-293 SNCA-luciferase knock-in, luminescence, 24 h; activity change, negative = inhibition: at 57.2 µM (top of the series) unless noted
Potency is the fitted concentration of half-maximal effect; tags give direction and shape of the fitted curve.

Activity change, negative = inhibition, inactive:
COc1cccc2c1cc1c(=O)n(CC(=O)N3CCN(c4cccc(C)c4C)CC3)nc(C)n12 -0.163%
COc1ccc(-c2cc(N3CCCN(C(=O)c4ccc(C)c(C)c4)CC3)n[nH]2)cc1 4.42%
CCOc1ccccc1Nc1ncnc2c1cnn2-c1ccc(C)cc1 174%
O=C(NCc1ccccc1)c1nc2sccn2c1-c1ccccc1 -5.98%
Clc1cnccc1CN1CCNc2cc(-c3ccccc3)ncc2C1 6.64% [at 87.6 µM]
O=c1c2nc(Nc3cccc(F)c3)ccc2ncn1Cc1ccccc1 11.3% [at 87.6 µM]
O=C(NCC1CC1)c1nc2c(o1)CCN(Cc1ccc(F)cc1F)CC2 -23.5% [at 87.6 µM]
COCC(=O)N(C1CCOCC1)C1CCN(S(=O)(=O)c2cccc(F)c2)CC1 2.58%
O=C(NCCc1ccccn1)c1cccnc1OC1CCNCC1 126%
N#Cc1cccnc1N1CCC(CO)(Cc2ccccc2C(F)(F)F)CC1 -8.83%
CCCN1CCCC2(Cc3ccccc3CN(C(C)=O)C2)C1 (stereo not drawn) 5.81% [at 87.6 µM]
Cc1cc(C(=O)N2CCCC(c3nc(C4CCOCC4)no3)C2)n(C)n1 (stereo not drawn) 6.09%
CCc1cccc2c(C(CC(=O)NCCC(C)C)c3cccc(OC)c3OC)c[nH]c12 (stereo not drawn) 5.89%
Cc1ccc(-c2cc3c(=O)n(CCNC(=O)Cc4cccc(F)c4)ccn3n2)c(C)c1 -21.4%
Cc1cccc(C(=O)N2CC[C@@H](NC(=O)c3cnccn3)[C@H](O)C2)n1 -23.4%
COc1ccccc1NC(=O)Nc1ccc(-c2nnc3n2CCCC3)cc1 60%
COc1ccc(C(=O)N2CCC3(CC2)C(=NC2CCCCC2)NC(=O)N3c2cc(F)cc(F)c2)cc1 -25.7%
CC(=O)N[C@@H]1C=C[C@@H](c2c(C)nn(-c3ccc(C)c(Cl)c3)c2C)C1 -33.2% [at 87.6 µM]
CC(=O)NC1(C)CCN(Cc2ccc(-c3ccc(Oc4ccccc4)cc3)cc2)C1 (stereo not drawn) 27.3% [at 87.6 µM]
COc1ccc(Nc2cc(C(=O)NCCc3ccccc3)c3ccccc3n2)cc1OC -29.4%
CC(C)CN1C(=O)CCc2cc(NC(=O)c3ccc(N(C)C)cc3)ccc21 -25.5%
CN1Cc2ccc(C(=O)Nc3ccc(OC(F)(F)F)cc3)cc2OCC1=O -12.5% [at 87.6 µM]
O=C(c1ccccc1Cl)N1CCN(c2nc3ncccc3o2)CC1 16.9%
COc1ccc(C(=O)N[C@@H]2CN(c3ncccn3)C[C@H]2CN(C)C)c(OC)c1 -1.69%
Cn1c(CNC(=O)C2CCN(c3cn[nH]c(=O)c3)C2)nc2ccccc21 (stereo not drawn) 7.4%
CC(=O)N[C@H]1C[C@@H](Cc2cc(CN3CCCCC3)on2)C1(C)C 9.44% [at 87.6 µM]
COc1cccc(-c2cn3cc(C(=O)NCc4cccc(Cl)c4)nc3s2)c1 6.94%
O=C(O)CCC(=O)OC[C@@H](NC(=O)C(Cl)Cl)[C@H](O)c1ccc([N+](=O)[O-])cc1 -9.51% [at 25.6 µM]
Cc1c(-c2ccc(F)cc2)[nH]c2ccc(CNC(=O)c3n[nH]c4c3CCCC4)cc12 -26.3%
O=C1CCC(C(=O)N2CCc3nc(-c4cccc(F)c4)[nH]c3C2)NC(=O)N1 (stereo not drawn) -1.62%

Potency, inconclusive:
CCOc1ccc(CNC(=O)c2ccc3oc(=O)n(Cc4ccccc4)c3c2)cc1 39.8 µM [inhibitor, single point]
Cc1ccc(NC(=O)Cn2c(C)cc3nc4n(c(=O)c32)CCCCC4)c(C)c1 25.1 µM [inhibitor, single point]
O=C(NC1CCN(c2ccc(=O)n(CC3CC3)n2)CC1)c1cnccn1 7.08 µM [inhibitor, single point]
COc1cc2cc(CNc3ccccc3)c(=O)n(CC(=O)Nc3cccc(Cl)c3C)c2cc1OC 1.78 µM [inhibitor, full curve, poor fit]
Cc1ccc(NCc2cccn2-c2nnc(N3CCC(C(=O)NCCc4ccc(Cl)cc4)CC3)s2)cc1 15.8 µM [inhibitor, partial curve, poor fit]
O=C(NCCc1ccccc1F)c1ccc2nnc(CC3CC3)n2c1 14.1 µM [inhibitor, partial curve, poor fit]
O=C(CCc1nc2ccccc2c(=O)[nH]1)NC1CCCc2c1[nH]c1c(Cl)cccc21 (stereo not drawn) 12.6 µM [inhibitor, partial curve, poor fit]
CNC(=O)c1cnn2c1CN(C(=O)OC)CC2 35.5 µM [inhibitor, partial curve, poor fit]
O=c1[nH]c(C2CCCN(Cc3ccc(-c4cccs4)cc3)C2)nc2ccc(F)cc12 (stereo not drawn) 35.5 µM [inhibitor, single point]
COc1cc(OC)c(NC(c2nnc(-c3ccccc3)o2)c2ccc(F)cc2Cl)cc1Cl (stereo not drawn) 22.4 µM [inhibitor, single point]
O=C(Cn1cccc1-c1nc(-c2ccc(F)cc2)no1)NC1CCCCC1 2.82 µM [inhibitor, single point]
COc1ccc2nc(N(Cc3cccnc3)C(=O)CCc3ccccc3)sc2c1 28.2 µM [inhibitor, single point]
COc1ccccc1Nc1c2c(nc3ccc(NC(=O)/C=C/c4cccc(OC)c4OC)cc13)CCCC2 28.2 µM [inhibitor, partial curve, poor fit]
COc1ccc(CC(=O)Nc2ccc3nc(Nc4cccc(Cl)c4)cc(C)c3c2)cc1OC 28.2 µM [inhibitor, partial curve, poor fit]
Cc1cccc(Cn2c(SCc3ccc(C(=O)N4CCCCCC4)cc3)nc3ccncc32)c1 15.8 µM [inhibitor, single point]
COCc1cc(C[C@@H]2CC[C@H](O)[C@@H](CNC(=O)C(C)C)O2)no1 7.94 µM [inhibitor, full curve, poor fit]
Cc1nn2c(c1-c1cccnc1N1CCOCC1)N(CCCc1ccccc1)CCC2 11.2 µM [inhibitor, partial curve, poor fit]
Cc1cc(S(=O)(=O)Nc2cccc(C(=O)O)c2)c(C)c(S(=O)(=O)c2ccccc2)c1 39.8 µM [inhibitor, single point]
O=C(Cc1ccc(Cl)cc1)NC1CCN(c2cc(-c3ccc(F)cc3)[nH]n2)C1 (stereo not drawn) 5.62 µM [inhibitor, full curve, poor fit]
CCc1ccccc1NC(=O)Cn1nnc(C(=O)OC)c1C(=O)OC 7.08 µM [inhibitor, single point]
O=C(CC1N=C2c3ccccc3N=C(SCC(=O)Nc3cccc(C(F)(F)F)c3)N2C1=O)NCc1cccs1 (stereo not drawn) 11.2 µM [inhibitor, single point]
Fc1ccc(CN2C[C@@H](F)[C@@H](OCc3nc4ccccc4o3)C2)cc1 11.2 µM [inhibitor, single point]
Cc1ccc(CN2CCc3ncc(C(=O)NCCOc4ccccc4)n3CC2)o1 28.2 µM [inhibitor, partial curve, poor fit]
COc1cccc(-c2cccc(C(=O)N3CCCC3C(=O)NCc3ccc(Cl)cc3)c2)c1 (stereo not drawn) 12.6 µM [inhibitor, partial curve, poor fit]
CC1CCN(c2nc3c(S(=O)(=O)c4ccccc4)nnn3c3ccsc23)CC1 7.08 µM [inhibitor, single point]
COc1ccccc1NC(=O)CCCOc1cc(=O)n(C)c2ccccc12 0.562 µM [inhibitor, full curve, poor fit]
O=S(=O)(c1ccccc1Cl)N1CCC(c2noc(COCC3CC3)n2)CC1 17.8 µM [inhibitor, single point]
Cc1ccc(C(=O)COC(=O)c2cc(-c3ccccc3)nc3ccccc23)cc1C 39.8 µM [inhibitor, single point]
COc1ccc(CN2C(=O)CO[C@H]3CN(Cc4ccccc4Cl)C[C@H]32)cc1 12.6 µM [inhibitor, single point]
CCn1c(C(=O)N2CCC(C(=O)N3CCN(c4cccc(C)c4C)CC3)CC2)cc2sccc21 11.2 µM [inhibitor, partial curve, poor fit]
COCCn1cc(C(=O)NC2CCCc3c2[nH]c2ccccc32)c2ccccc2c1=O (stereo not drawn) 1.26 µM [inhibitor, partial curve, poor fit]
c1ccc(CNc2nc3ccccc3c3nc(-c4ccccc4)nn23)cc1 28.2 µM [inhibitor, single point]
O=c1c2cc3c(cc2nc2sc(Nc4ccc(F)cc4F)nn12)OCO3 7.08 µM [inhibitor, single point]
COc1ccc(NS(=O)(=O)c2cc3[nH]c(=O)c(=O)[nH]c3cc2C)cc1OC 7.94 µM [inhibitor, single point]
Cn1ccnc1-c1cn(Cc2scnc2-c2ccccc2)nn1 7.08 µM [inhibitor, full curve, poor fit]
COc1ccccc1-c1[nH]nc2ncc(-c3cnn(C)c3)nc12 3.98 µM [inhibitor, partial curve, poor fit]
N#Cc1ccc(C(=O)N2Cc3[nH]cnc3C[C@H]2c2nc(-c3ccc4c(c3)OCO4)no2)cc1 35.5 µM [inhibitor, single point]

Potency, active:
Cc1ccc(Nc2ccnc(N3CCC(NC(=O)c4ccc(C(F)(F)F)cc4)CC3)n2)cc1 25.1 µM
